{
  "source": "PubChem BioAssay AID1346428",
  "about": "(National Center for Advancing Translational Sciences (NCATS), 2018)",
  "note": "Where “and” joins values, the source holds several entries; their conditions need not be identical. Identical values can stand only once. In all, about 48,000 compounds went through this assay and about 1,200 (2.5%) were called active. Not shown: some 2% with an inconclusive outcome.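 The calls were made as follows: active = activation of at least 60% and not above a set upper limit (about 1 call in 100 departs from these limits); inconclusive = activation of 40% to 60%, or above that upper limit; inactive = activation under 40%.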 This is one part of the list.",
  "data": [
    {"target": "Probable G-protein coupled receptor 32 (Homo sapiens) (UniProt O75388)", "sequence (O75388 whole entry, looked up)": "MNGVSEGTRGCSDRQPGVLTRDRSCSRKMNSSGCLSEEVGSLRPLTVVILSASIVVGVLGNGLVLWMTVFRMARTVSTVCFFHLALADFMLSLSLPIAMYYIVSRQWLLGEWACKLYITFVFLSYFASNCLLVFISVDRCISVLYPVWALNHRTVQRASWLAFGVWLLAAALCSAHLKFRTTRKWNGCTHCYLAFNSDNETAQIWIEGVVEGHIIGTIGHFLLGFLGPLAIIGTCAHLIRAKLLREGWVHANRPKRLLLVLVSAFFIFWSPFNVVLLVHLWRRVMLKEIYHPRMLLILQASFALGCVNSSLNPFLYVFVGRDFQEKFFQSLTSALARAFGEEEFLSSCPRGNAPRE", "assay": "qHTS for Agonists of Human Resolvin D1 Receptor DRV1; also: 0% is about no effect", "settings": "CHO-K1 GPR32 beta-arrestin PathHunter luminescence, 90 min; at 76.9 µM; hits give high values; zero percent set by DMSO-only wells", "in_short": "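Engineered CHO-K1 line co-expressing GPR32-ProLink and EA-beta-arrestin. Compound treatment lasted 90 min at 37 °C. Luminescence was recorded after 1 h with substrate at ambient temperature, relative to DMSO basal wells.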", "values": [
      {"smiles": "Cc1c(-c2ccc(O)cc2)n(Cc2ccc(OCCN3CCCCCC3)cc2)c2ccc(O)cc12", "activation": "inactive: 4.08%"},
      {"smiles": "CC(C)(C)c1ccc(C(=O)Nc2ccc(-c3nc4cc(Cl)ccc4o3)cc2)cc1", "activation": "inactive: -2.64%"},
      {"smiles": "CCOc1ccc(NCc2cccn2-c2nnc(N3CCC(C(=O)NCc4ccc(C)cc4)CC3)s2)cc1", "activation": "inactive: -25%"},
      {"smiles": "Cc1nnc(N2CCN(c3ccccc3F)CC2)c2c1nnn2Cc1ccccc1Cl", "activation": "inactive: -2.17%"},
      {"smiles": "COc1ccc(N2CCN(CC(O)COc3ccc(C(C)C)c(C)c3)CC2)cc1", "note": "(stereo not drawn)", "activation": "active: 104%"},
      {"smiles": "COc1ccc2nc3oc(C(=O)N(C)c4ccc(Cl)cc4)cc3cc2c1", "activation": "inactive: 33.1%"},
      {"smiles": "CCc1nnc(NC(=O)CSc2nccn2Cc2ccc(F)cc2)s1", "activation": "inactive: 11.4%"},
      {"smiles": "c1cc(CN2CCCCC2)cc(OCCCNc2nc3ccccc3s2)c1", "activation": "inactive: -22.1% and inactive: -10.7%"},
      {"smiles": "O=C(c1ccc2c(c1)N(Cc1ccccc1F)C(=O)c1ccccc1S2=O)N1CCCCC1", "note": "(stereo not drawn)", "activation": "inactive: -29.7%"},
      {"smiles": "CCN(CC)C(=O)Cn1c(=O)n(CCCCCC(=O)NCc2ccccc2)c(=O)c2sccc21", "activation": "inactive: -2.51%"},
      {"smiles": "COc1ccccc1C(=O)Nc1ccccc1SCc1cc(=O)c2ccccc2[nH]1", "activation": "inactive: 4.19%"},
      {"smiles": "CCOc1cc(/C=C(\\C#N)C(=O)Nc2ccccc2C)ccc1OCc1cc(=O)n2nc(CC)sc2n1", "activation": "inactive: 7.57%"},
      {"smiles": "O=C(NC1CC(=O)N(c2ccc(F)cc2)C1)C1CCCCC1", "note": "(stereo not drawn)", "activation": "inactive: -2.56%"},
      {"smiles": "CNCC(O)c1ccc(O)c(O)c1", "note": "(stereo not drawn)", "activation": "inactive: 43.7% and inactive: -2.2%"},
      {"smiles": "COc1cccc(C(c2c(O)cc(C)n(Cc3ccco3)c2=O)N2CCC(C)CC2)c1", "note": "(stereo not drawn)", "activation": "inactive: -11%"},
      {"smiles": "Cc1nnc(SCC(=O)NCc2ccc(N(C)C)cc2)c2nn(-c3ccccc3)c(C)c12", "activation": "inactive: -5.28%"},
      {"smiles": "Cc1ccc(NC(=O)C2CCN(c3nnc(-n4cccc4)s3)CC2)cc1Cl", "activation": "inactive: 8.65%"},
      {"smiles": "CCOc1ccc(-c2csc(-c3nc(-c4ccc(Br)s4)cs3)n2)cc1", "activation": "inactive: 11.8%"},
      {"smiles": "COc1ccc(OC)c2sc(N(Cc3cccnc3)C(=O)c3ccc(C(C)=O)cc3)nc12", "activation": "inactive: -27.6%"},
      {"smiles": "O=C(NCc1ccccc1)c1cc2ccccc2o1", "activation": "inactive: -3.75%"},
      {"smiles": "COc1ccc(-c2nc(C)c(CCNC(=O)c3cc(OC)c(OC)c(OC)c3)s2)cc1OC", "activation": "inactive: -5.19%"},
      {"smiles": "Cc1ccc(C(=O)COC(=O)c2cccc(NC(=O)c3ccc(Br)cc3)c2)cc1", "activation": "inactive: 6.43%"},
      {"smiles": "Cc1ccc(C)c(N2CCN(S(=O)(=O)c3ccc4c(c3)CC(=O)N4C)CC2)c1", "activation": "inactive: -8.99%"}
    ]}
  ]
}
